Results reported in US20250367183A1, “SUBSTANCE FOR PROMOTING REGENERATION AND REPAIR OF ORGANS OF MAMMALS AND USE THEREOF” (INSTITUTE OF ZOOLOGY, CHINESE ACADEMY OF SCIENCES, priority 2022, published 2025).

Test system: STING-TBK1-IRF3 signaling pathway
Assay: immunofluorescence staining of STING/TBK1/IRF3 signaling
Format: cell-based
Details: in vitro (FIG. 4E)

Question: With C[C@@H]1C[C@@H]([C@H](O)CC2CC(=O)NC(=O)C2)C(=O)[C@@H](C)C1 [CHX, 4-((R)-2-((1S,3S,5S)-3,5-dimethyl-2-oxocyclohexyl)-2-hydroxyethyl)piperidine-2,6-dione] as the compound, how does the “activation of STING-TBK1-IRF3 signaling” value read?
Answer: The value was “perinuclear enrichment of STING protein and the nuclear entry of IRF3 protein”.
